PubChem BioAssay AID686971 (National Center for Advancing Translational Sciences (NCATS), 2013)
In all, about 360,000 compounds went through this assay and about 7,500 (2.1%) were called active. The shares of active, inactive and inconclusive entries below differ from those in the screen. Calls follow the shape of the dose curve; as a rule, active = well fitted cell-killing curve with a large enough effect; inconclusive = small, poorly fitted or top-dose-only effect, or effect the other way, or another doubt; inactive = no such curve, though single readings can be large or run the other way. Potencies of inconclusive entries are left out as doubtful fits.

Test: qHTS for induction of synthetic lethality in tumor cells producing 2HG: qHTS for the HT-1080-IDH1KD cell line;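 as to activity, negative = toxicity: 0% = DMSO wells and -100% = cell-free medium wells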
Details: HT-1080 IDH1 knockdown viability, ATP luminescence, 48 h; activity, negative = toxicity: at 46.1 µM (top of the series) unless noted
How it was run: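 Using the IDH1-knockdown HT-1080 line run in the same batch and compound series as the NT line, viability after 48 h at 37 °C was determined by CellTiter-Glo luminescence and expressed as % activity.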
Potency is read from the fitted curve at half-maximal effect; tags tell the direction and shape of the fitted curve.

| Structure (SMILES) | Potency | activity, negative = toxicity |
| --- | --- | --- |
| COc1c(OC)c(O)c2c(=O)c(O)c(-c3ccccc3)oc2c1OC | inactive |  |
| Cc1nc(Nc2nc(-c3ccccc3)cc(=O)[nH]2)nc2ccccc12 | active: 18.4 µM |  |
| COC(=O)c1ccc2nc(C3CCCCC3)c(Cc3ccc(C)cc3)n2c1 | inconclusive [cytotoxic, single point] |  |
| Cc1cc(S(=O)(=O)Nc2ccc(C(=O)NCC(c3ccco3)N(C)C)cc2)ccc1F (configuration not stated) | inactive |  |
| CN1CCN(c2nc(Nc3cccc(C(F)(F)F)c3)nc(N3CCOCC3)n2)CC1 | inconclusive [cytotoxic, single point] |  |
| C/C(=N\NC(=S)NCc1ccccc1)c1ccc(C(C)(C)C)cc1 | inconclusive [cytotoxic, partial curve] |  |
| O=C(NC(Cc1c[nH]c2ccccc12)C(=O)Nc1ccc(F)c([N+](=O)[O-])c1)c1cccs1 (configuration not stated) | inconclusive [cytotoxic, partial curve] |  |
| COc1cc(C(=O)OCCc2cc3ccccc3c(=O)o2)cc(OC)c1OC | active: 7.31 µM |  |
| OC(c1ccc(Cl)cc1)c1ncc(-c2cccc(C(F)(F)F)c2)[nH]1 (configuration not stated) | inconclusive [cytotoxic, single point] |  |
| N=c1ccn(Cc2ccc(Cl)c(Cl)c2)cc1 | inconclusive [cytotoxic, single point] |  |
| COC(=O)CNC(=O)/C=C/c1cc(Br)ccc1OC | inactive |  |
| Cc1ccc(S(=O)(=O)NCC(=O)OCC(=O)Nc2cccc(S(=O)(=O)NC3=NCCCCC3)c2)cc1C | inactive |  |
| Cc1cc2oc(=O)cc(Cn3ncc(Cl)c(Cl)c3=O)c2cc1Cl | active: 3.26 µM |  |
| O=C(Nc1cccc(-c2nc3ccccc3[nH]2)c1)c1ccco1 | inactive |  |
| Cc1ccc(C(=O)CSc2nnc(CNc3ccc(C)cc3C)n2Cc2ccco2)cc1 | inconclusive [cytotoxic, single point] |  |
| O=C(NCCc1ccc(F)cc1)Nc1ccc([N+](=O)[O-])cc1 | inconclusive [cytotoxic, single point] |  |
| CC(C)C[C@H]1CNC(=O)C(=O)N1C[C@@H]1CCCN1C[C@H](Cc1ccc(O)cc1)N1C[C@H](Cc2ccccc2)N(CC2CCCCC2)C(=O)C1=O | inconclusive [cytotoxic, single point] |  |
| O=C1C(Nc2ccccc2)=C/C(=N/S(=O)(=O)c2cccs2)c2ccccc21 | inconclusive [cytotoxic, single point] |  |
| CCOC(=O)c1ccc(S(=O)(=O)N2CCC(C(=O)N3CCN(c4ccccc4OC)CC3)CC2)cc1 | inconclusive [cytotoxic, full curve, poor fit] |  |
| COc1ccc2c(c1)sc(N)[n+]2Cc1cc(C)cc2cccnc12 | active: 5.17 µM |  |
| CCn1ncc(Br)c1C(=O)Nc1cccc(F)c1 | inactive |  |

| Structure (SMILES) | Potency | activity, negative = toxicity |
| --- | --- | --- |
| O=C(/C=C/c1c[nH]c2ccccc12)c1cccc2ccccc12 | inconclusive [cytotoxic, single point] |  |
| O=C(OCc1ccccc1)N1C=CCC[C@@H]1c1c(Cl)cccc1Br | inactive |  |
| Nc1ccccc1SCC(=O)Nc1nc(-c2ccccc2)cs1 | inconclusive [cytotoxic, full curve, poor fit] |  |
| COc1ccc(Cl)cc1C(Nc1cccnc1)c1ccc2cccnc2c1O (configuration not stated) | active: 10.3 µM |  |
| COc1ccc(CNC(=O)c2cccc3c(-c4cnn(C)c4)coc23)cc1OC |  | inconclusive: -32.1% [cytotoxic] |
| COC1=CC(=O)CC(C)C12Oc1c(Cl)c(OC)cc(OC)c1C2=O (configuration not stated) | inconclusive [cytotoxic, single point] |  |
| O=C(Cc1ccc(S(=O)(=O)N2CCOCC2)s1)N(Cc1ccccc1)c1ccccc1 | inactive |  |
| CCOc1ccc(NC(=O)c2cccs2)c([N+](=O)[O-])c1 | inconclusive [cytotoxic, partial curve] |  |
| CC(C)(C)c1ccc(C(=O)Nc2ccc(S(=O)(=O)Nc3cnc4ccccc4n3)cc2)cc1 | inconclusive [cytotoxic, single point] |  |
| COc1ccc(-c2ccc3[nH]c4c(c3c2)CCN2C(=O)[C@@H]([C@H](C)O)[C@@H](N(C)C(=O)Nc3ccc(F)cc3)C[C@@H]42)cc1 | inconclusive [cytotoxic, single point] |  |
| O=C(NCCc1ccccc1)C(=O)NCC1CCCN1S(=O)(=O)c1ccccc1 (configuration not stated) | inconclusive [cytotoxic, partial curve] |  |
| COc1ccc(-c2[nH]c3ccccc3c2SCCNC(=O)c2cc3ccccc3oc2=O)cc1 | inconclusive [cytotoxic, single point] |  |
| O=C1C=C(c2c(O)ccc3ccccc23)c2ccccc2C1=O | inconclusive [cytotoxic, single point] |  |
| COc1cc2c3nnc(-c4ccc(F)cc4)c-3cn(Cc3ccc(F)cc3)c2cc1OC | inconclusive [cytotoxic, single point] |  |
| Cc1cccc(NC2=NC(C)(C)N=C(N)N2)c1 | active: 0.164 µM |  |
| N#Cc1c(-c2ccccc2)nc(N2CCCCCC2)[nH]c1=O | inconclusive [cytotoxic, single point] |  |
| O=C(NCCC1=CCCCC1)c1ccc(Cl)c(S(=O)(=O)Nc2ccccc2)c1 | inconclusive [cytotoxic, partial curve, poor fit] |  |
| CC(C)(C)c1ccc(Cn2nnc3c(=O)[nH]c(C4CCN(C(=O)Cc5cccs5)CC4)nc32)cc1 | inconclusive [cytotoxic, single point] |  |
| O=C1S/C(=C\C=C\c2ccco2)C(=O)N1c1ccccc1 | inconclusive [cytotoxic, single point] |  |
| CCOc1cc(CNc2ccc3cn[nH]c3c2)ccc1OC | inconclusive [cytotoxic, single point] |  |
| COc1ccc(Nc2nnc(-c3ccc(C)cc3)c3ccccc23)cc1C(=O)N1CCCCC1 | inconclusive [cytotoxic, single point] |  |
